Assay results published in PMC4336329 (PLoS ONE, 2015).
Out of some 310,000 compounds screened, about 2,200 (0.71%) showed an effect of 50% or more. The effect is printed as a negative number. The list shows a part of the results.

target: human ether-à-go-go-related gene (hERG) potassium channel (human, UniProt Q12809); assay: primary screen, population patch clamp on CHO cells stably expressing hERG
Sequence (Q12809 whole entry, looked up): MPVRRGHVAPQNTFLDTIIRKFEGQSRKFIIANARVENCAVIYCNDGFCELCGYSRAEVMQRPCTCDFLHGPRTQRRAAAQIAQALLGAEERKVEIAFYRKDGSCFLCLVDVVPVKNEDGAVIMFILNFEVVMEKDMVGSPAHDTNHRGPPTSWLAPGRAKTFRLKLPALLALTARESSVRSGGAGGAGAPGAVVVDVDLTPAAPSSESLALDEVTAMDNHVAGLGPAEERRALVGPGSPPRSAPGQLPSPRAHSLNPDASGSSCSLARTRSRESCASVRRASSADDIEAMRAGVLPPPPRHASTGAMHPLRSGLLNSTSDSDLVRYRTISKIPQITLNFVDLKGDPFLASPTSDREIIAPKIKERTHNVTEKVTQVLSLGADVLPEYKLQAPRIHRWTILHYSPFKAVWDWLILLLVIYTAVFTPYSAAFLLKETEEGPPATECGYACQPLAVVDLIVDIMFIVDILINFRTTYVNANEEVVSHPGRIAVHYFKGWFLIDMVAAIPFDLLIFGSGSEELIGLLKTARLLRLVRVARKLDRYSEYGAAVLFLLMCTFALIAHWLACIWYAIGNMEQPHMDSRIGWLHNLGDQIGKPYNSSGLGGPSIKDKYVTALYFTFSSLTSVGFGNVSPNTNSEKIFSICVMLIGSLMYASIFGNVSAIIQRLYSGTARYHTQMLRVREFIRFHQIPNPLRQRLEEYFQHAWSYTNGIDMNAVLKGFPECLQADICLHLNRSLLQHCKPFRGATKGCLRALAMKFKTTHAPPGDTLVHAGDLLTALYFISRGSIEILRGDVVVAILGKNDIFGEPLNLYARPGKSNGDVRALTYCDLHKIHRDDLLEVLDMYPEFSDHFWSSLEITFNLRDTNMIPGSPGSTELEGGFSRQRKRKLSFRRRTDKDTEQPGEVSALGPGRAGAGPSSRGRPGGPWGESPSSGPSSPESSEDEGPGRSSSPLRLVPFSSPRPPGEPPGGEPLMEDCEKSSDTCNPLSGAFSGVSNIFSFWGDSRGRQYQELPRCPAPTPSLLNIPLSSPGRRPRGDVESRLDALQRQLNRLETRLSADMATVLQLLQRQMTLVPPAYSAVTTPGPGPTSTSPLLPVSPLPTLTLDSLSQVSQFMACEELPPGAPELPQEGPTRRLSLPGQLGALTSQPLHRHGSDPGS

Row | Structure (SMILES) | hERG current change (%, negative = inhibition) at 1uM
1 | Cn1ccsc1=NC(=O)c1ccc(S(C)(=O)=O)cc1 | 14.4%
2 | Cn1c(=O)c2[nH]c(-c3ccccc3)c(O)c2n(C)c1=O | 16.6%
3 | COc1cc(NC(=O)c2ccccc2F)ccc1NC(=O)c1cc2ccccc2o1 | 10.5%
4 | CCCN(CC#CC(O)(c1ccccc1)c1cccnc1)CCC (stereo not drawn) | -14.8%
5 | Cc1cc(O)c(CN2CC=C(c3ccccc3)CC2)cc1C(C)C | 1.93%
6 | Cc1ccc(NC(=O)CN2C(=O)NC3(CCCC3)C2=O)c(Cl)c1 | 16.1%
7 | COC(=O)c1cc(C(=O)OC)cc(S(=O)(=O)Nc2ccc(Cl)c(N)c2)c1 | 10.4%
8 | CC(OC(=O)c1ccccc1NCc1ccco1)C(=O)Nc1ncc(Cl)cc1Cl (stereo not drawn) | 12.6%
9 | COc1cc(NC(=O)c2ccnc(N)c2)cc(C(=O)Nc2cccc(C(F)(F)F)c2)c1 | 11.5%
10 | CC(C)(C)c1oc(C(=O)O)cc1CN1CCOCC1.Cl | 15.6%
11 | CCOC(=O)[C@H]1[C@H]2COc3ccccc3[C@@H]2N2C(=O)c3cc(Cl)ccc3NC(=O)[C@@]12C | 12.3%
12 | O=S(=O)(/N=C(/Nc1cccc2ccccc12)c1ccccc1)c1ccccc1 | 8.64%
13 | CCOCCCNC(=S)N1CCC(NC(=O)C23CC4CC(CC(C4)C2)C3)CC1 | 7.14%
14 | CN(C)c1ccc(C(=O)C(O)c2ccc(C(C)(C)C)cc2)cc1 (stereo not drawn) | 8.3%
15 | CCC1CCCCN1C(=O)COC(=O)c1cc(Br)ccc1Cl (stereo not drawn) | 12.3%
16 | CC(C)CNS(=O)(=O)c1ccc(CCC(=O)NCC2CCCO2)cc1 (stereo not drawn) | 9.89%
17 | CC(CC(=O)N1CCN(S(=O)(=O)c2ccc(Cl)cc2)CC1)n1cncn1 (stereo not drawn) | 9.75%
18 | O=C(c1cc(F)ccc1F)C1CCCN(C(=O)c2ccc3nccnc3c2)C1 (stereo not drawn) | 7.93%
19 | O=C(OCCCCN1C(=O)c2ccccc2C1=O)c1ccc(S(=O)(=O)N2CCCC2)cc1 | 10%
20 | Cc1ccc(NC(=S)NCc2ccc3c(c2)OCO3)cc1C | 2.64%
21 | O=C(CN1C(=O)CCSc2ccc(S(=O)(=O)N3CCCC3)cc21)Nc1ccccc1Cl | 15.6%
22 | CC(C)Cc1ccc(C#N)c(SCC(N)=O)n1 | 2.11%
23 | CC(=O)c1ccc2c3c(cccc13)C(=O)N(CCc1ccccc1)C2=O | 10.9%
24 | COc1ccc(Cn2nnnc2C(c2cc3cc(C)ccc3[nH]c2=O)N2CCN(C)CC2)cc1 (stereo not drawn) | -4.56%
